According to PubChem BioAssay (NCATS):
“And” between values parts separate entries of the source, which are not always exact repeats. Identical values can stand only once. This list was built around the results that the source calls inconclusive (neither active nor inactive); the mix of calls is not that of the screen. For part of these data: Where the call is inconclusive, the potency comes from a doubtful curve fit. The source made the active and inactive calls. Calls follow the shape of the dose curve; as a rule, active = well fitted curve in the direction sought with a large enough effect; inconclusive = small, poorly fitted or top-dose-only effect, or another doubt; inactive = no such curve, though single readings can be large; an effect the other way counts as inactive or inconclusive.

Columns and labels:
[1] = Primary qHTS for inhibitors of nuclear receptor binding SET domain protein 2 (NSD2) in an isogenic RCH-ACV NSD2 p.E1099K mutant (9B) (AID 1645876); also: potency is read from the fitted curve at half-maximal effect; nearly all actives have a fitted effect of over 70% in size
[2] = Primary qHTS for inhibitors of nuclear receptor binding SET domain protein 2 (NSD2) in an RCH-ACV wild type WT cells (2C) (AID 1645877); conditions: activity change, negative = cell killing: at 44.9 µM (top of the series) unless noted; also: potency is read from the fitted curve at half-maximal effect; nearly all actives have a fitted effect of over 70% in size
CRL-7250 = normal cell line; experiment: Cytotoxic Profiling of Annotated Libraries Using Quantitative High-Throughput Screening (AID 1296008); conditions: Five cell lines viability, CellTiter-Glo ATP luminescence, 48-72 h; max response: stronger effect = lower value; also: potency is read from the fitted curve at half-maximal effect; nearly all actives have a fitted effect of over 60% in size
Outline: (§1)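 Compounds were pin-transferred onto cells and incubated 48 or 72 hr at 37 degree Celsius, 95% humidity. CellTiter-Glo was added, plates sat 10 min at room temperature, then ATP-coupled luminescence was imaged as the viability read-out.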

HaCat = experiment: as above; conditions: Five cell lines viability, CellTiter-Glo ATP luminescence, 48-72 h; max response: stronger effect = lower value
Outline: as §1

KB-3-1 = experiment: as above; conditions: Five cell lines viability, CellTiter-Glo ATP luminescence, 48-72 h; max response: stronger effect = lower value
Outline: as §1

C33A = experiment: Primary qHTS to identify gynecologic anti-cancer compounds using libraries of approved drugs and bioactive compounds (AID 1345084); conditions: Gynecologic cancer cell panel viability, ATPlite luminescence, 48 h; series mostly up to 57.5 µM; also: potency is read from the fitted curve at half-maximal effect; nearly all actives have a fitted effect of over 55% in size
Outline: (§2)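 ATP-based viability (ATPlite), 1,000 cells/well, 16 h pre-incubation, 48 h compound at 37 C, 5% CO2, 15 min RT before read.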

CAOV3 = experiment: as above; conditions: Gynecologic cancer cell panel viability, ATPlite luminescence, 48 h; activity change, negative = cytotoxicity: at 57.5 µM (top of the series)
Outline: as §2

HeLa = experiment: as above; conditions: Gynecologic cancer cell panel viability, ATPlite luminescence, 48 h; activity change, negative = cytotoxicity: at 57.5 µM (top of the series)
Outline: as §2

Hek293T = experiment: as above; conditions: Gynecologic cancer cell panel viability, ATPlite luminescence, 48 h, control line for the selectivity index; activity change, negative = cytotoxicity: at 57.5 µM (top of the series) unless noted
Outline: as §2

JEG-3 = experiment: as above; conditions: Gynecologic cancer cell panel viability, ATPlite luminescence, 48 h; series mostly up to 57.5 µM
Outline: as §2

OV90 = experiment: as above; conditions: Gynecologic cancer cell panel viability, ATPlite luminescence, 48 h; series mostly up to 57.5 µM
Outline: as §2

PA-1 = experiment: as above; conditions: Gynecologic cancer cell panel viability, ATPlite luminescence, 48 h; series mostly up to 57.5 µM
Outline: as §2

SKOV3 = experiment: as above; conditions: Gynecologic cancer cell panel viability, ATPlite luminescence, 48 h; series mostly up to 57.5 µM
Outline: as §2

Tov-21-G = experiment: as above; conditions: Gynecologic cancer cell panel viability, ATPlite luminescence, 48 h; activity change, negative = cytotoxicity: at 57.5 µM (top of the series) unless noted
Outline: as §2

[3] = P-glycoprotein substrates identified in KB-8-5-11 adenocarcinoma cell line, qHTS therapeutic library screen (AID 1346987); also: potency is read from the fitted curve at half-maximal effect; nearly all actives have a fitted effect of over 65% in size
Outline: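 Steps: plate 500 KB-8-5-11 cells/well in DMEM + 10% FCS (colchicine removed); pin compounds in dose-response; incubate 72 h, 37 degree C, 5% CO2; add CellTiter-Glo, 5 min; read luminescence.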

[4] = system: Zika virus NS2B-NS3 protease (unlinked complex); experiment: Primary screen GU Rhodamine qHTS for Zika virus inhibitors: Unlinked NS2B-NS3 protease assay (AID 1347159); also: nearly all actives have a fitted effect of over 60% in size
Outline: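 Noncovalent NS2B hydrophilic domain–NS3 protease domain complex (25 nM) preincubated 15 min at room temperature with compounds (up to 114 microM) in 10 mM Tris-HCl pH 8.0, 0.01% Tween 20; 1.5 microM Rhodamine110 substrate added, fluorescence change over 15 min fitted to Hill equation.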

Es-2 = experiment: Primary qHTS to identify gynecologic anti-cancer compounds using libraries of approved drugs and bioactive compounds (AID 1345084); conditions: Gynecologic cancer cell panel viability, ATPlite luminescence, 48 h; series mostly up to 57.5 µM; also: potency is read from the fitted curve at half-maximal effect; nearly all actives have a fitted effect of over 55% in size
Outline: as §2

NIH3T3 = experiment: Cytotoxic Profiling of Annotated Libraries Using Quantitative High-Throughput Screening (AID 1296008); conditions: Five cell lines viability, CellTiter-Glo ATP luminescence, 48-72 h; max response: stronger effect = lower value; also: potency is read from the fitted curve at half-maximal effect; nearly all actives have a fitted effect of over 60% in size
Outline: as §1

CASKI = experiment: Primary qHTS to identify gynecologic anti-cancer compounds using libraries of approved drugs and bioactive compounds (AID 1345084); conditions: Gynecologic cancer cell panel viability, ATPlite luminescence, 48 h; series mostly up to 57.5 µM; also: potency is read from the fitted curve at half-maximal effect; nearly all actives have a fitted effect of over 55% in size
Outline: as §2

Tov112D = experiment: as above; conditions: Gynecologic cancer cell panel viability, ATPlite luminescence, 48 h; series mostly up to 57.5 µM
Outline: as §2
Tags tell the direction and shape of the fitted curve.

Compound	Potency [1]	Potency [2]	Potency (CRL-7250)	Potency (HaCat)	Potency (KB-3-1)	Potency (C33A)	Potency (CAOV3)	Potency (HeLa)	Potency (Hek293T)	Potency (JEG-3)	Potency (OV90)	Potency (PA-1)	Potency (SKOV3)	Potency (Tov-21-G)	Potency [3]	Potency [4]	Potency (Es-2)	Potency (NIH3T3)	Potency (CASKI)	Potency (Tov112D)
C=C1C(=O)O[C@@H]2C/C(C)=C\C(=O)/C=C(\C)[C@@H](OC(=O)/C(C)=C\C)[C@H](O)[C@@H]12	inconclusive: 1.79 µM [inhibitor, full curve, poor fit]	inconclusive: 1.13 µM [inhibitor, full curve, poor fit]	inconclusive: 1.8 µM [inhibitor, full curve]	inconclusive: 11.4 µM [inhibitor, partial curve, poor fit]	active: 11.4 µM	active: 10 µM	active: 7.94 µM	inconclusive: 28.2 µM [cytotoxic, single point]	active: 7.94 µM	active: 7.08 µM	inconclusive: 20 µM [cytotoxic, single point]	active: 2.82 µM	active: 11.2 µM	active: 7.94 µM	–	–	–	–	–	–
NC(=O)c1cnc(N[C@@H]2CCCC[C@H]2N)nc1Nc1cccc(-n2nccn2)c1	–	active: 0.459 µM	inconclusive: 29.1 µM [inhibitor, single point]	active: 18.4 µM	inconclusive: 23.1 µM [inhibitor, single point]	–	inconclusive: 28.2 µM [cytotoxic, single point]	–	–	–	inconclusive: 14.1 µM [cytotoxic, partial curve]	inconclusive: 28.2 µM [cytotoxic, single point]	inconclusive: 28.2 µM [cytotoxic, single point]	inconclusive: 12.6 µM [cytotoxic, partial curve]	inconclusive: 25.9 µM [inhibitor, single point]	–	–	–	–	–
C=C1CC2OC(=O)C(=C)C2C(OC(=O)/C(C)=C\C)CC2(C)OC1=CC2=O (stereo unspecified)	active: 2.01 µM	–	active: 14.3 µM	inconclusive: 18 µM [inhibitor, single point]	inconclusive: 20.2 µM [inhibitor, single point]	active: 11.2 µM	inconclusive: 10 µM [cytotoxic, partial curve, poor fit]	–	inconclusive: 11.2 µM [cytotoxic, single point]	inconclusive: 12.6 µM [cytotoxic, single point]	–	inconclusive: 28.2 µM [cytotoxic, single point]	active: 11.2 µM	–	inconclusive: 20.2 µM [inhibitor, single point]	inactive	active: 10 µM	–	–	–
Cc1ccccc1C(=O)Nc1ccc(C(=O)N2CCCC(N(C)C)c3ccccc32)cc1 (stereo unspecified)	inconclusive: 5.31 µM [inhibitor, single point]	–	inconclusive: 29.1 µM [inhibitor, partial curve, poor fit]	inconclusive: 5.96 µM [inhibitor, single point] and inconclusive: 23.1 µM [inhibitor, partial curve, poor fit]	–	–	inconclusive: 17.8 µM [cytotoxic, single point] and inconclusive: 25.1 µM [cytotoxic, single point]	inconclusive: 39.8 µM [cytotoxic, single point] and inconclusive: 35.5 µM [cytotoxic, single point]	inconclusive: 28.2 µM [cytotoxic, single point] and inconclusive: 22.4 µM [cytotoxic, single point]	inconclusive: 28.2 µM [cytotoxic, single point]	–	inconclusive: 28.2 µM [cytotoxic, single point]	inconclusive: 8.91 µM [cytotoxic, partial curve, poor fit] and inconclusive: 31.6 µM [cytotoxic, single point]	inconclusive: 39.8 µM [cytotoxic, single point] and inconclusive: 31.6 µM [cytotoxic, single point]	–	–	inconclusive: 31.6 µM [cytotoxic, single point] and inconclusive: 39.8 µM [cytotoxic, single point]	active: 9.44 µM	inconclusive: 39.8 µM [cytotoxic, single point]	inconclusive: 39.8 µM [cytotoxic, single point]
